Reference: the RNAGym collection of RNA variant scans (doi:10.7554/elife.90254)
The source gives no read counts; variants with many changes may rest on few reads.

B1: LINE1-mini (parent)
chain: GGCAGAGCUCAACACAGCGUGGCAAAGUGGCUGUGGCUAGACUGCC

Variants of: B1
Test: self-cleavage, relative activity (ratio to wild type); higher = more cleavage; in vitro, sequencing; the parent is a self-cleaving ribozyme

| Variant | self-cleavage |
| --- | --- |
| G7C G22U G40C C46A | 0.08 |
| G7U C37G C46G | 0.02 |
| G7U A14C G19U A26U | 0.02 |
| G7U G22C G44A | 0.03 |
| G7U C13U C46A | 0.17 |
| G7C C10A A12U A25U G30C | 0.1 |
| G7U C10U C13G U43A | 0.04 |
| G7U C18U U32G G40A | 0.13 |
| G7C G30U C46G | 0 |
| G7C C15G U20G G40U | 0.01 |
| G7C U9G U20A | 0.04 |
| G7U C23U U34A C46A | 0.03 |
| G7U A11U A16U G35U | 0.02 |
| G7U C37A A39U C45A | 0.04 |
| G7U C13G U28C U32C A39G | 0.16 |
| G7U A14U G17C G35U | 0.11 |
| G7C C13G C23U A25U U32G C37G U38C C46U | 0.03 |
| G7U A16C U34A | 0.01 |
| G7C C10A C23A | 0.01 |
| G7U C23U U28A G36U C46G | 0.01 |
| G7C C31A C42U | 0.05 |

| Variant | self-cleavage |
| --- | --- |
| G7U C13G G22U | 0.07 |
| G7C C8U G21A | 0.64 |
| G7C G44U C45G | 0 |
| G7U C10G C15U G17A C18A C31U U34A | 0.01 |
| G7U U9G G17U C18A | 0.04 |
| G7U A24G A39C | 0.19 |
| G7C A11U C18U G22U | 0.02 |
| G7C A14C C15A G30A | 0.02 |
| G7C U9A G40C | 0.05 |
| G7U C13U C23U G33A | 0.19 |
| G7U C8A U34C | 0.11 |
| G7U C8G A16G C42U U43C C46U | 0.03 |
| G7C U20A A39G | 0.03 |
| G7C C13A A14G | 0 |
| G7U C13U C18G U43G | 0.09 |
| G7U A12U A14G G17U C23A C31U C42A | 0.02 |
| G7C G21C C37A | 0.18 |
| G7C G30A G35A | 0.11 |
| G7C C13G C15U U20A G27U G30A C46A | 0.05 |
| G7U G17A G36A | 0.04 |
| G7U C15G G33A | 0.02 |

| Variant | self-cleavage |
| --- | --- |
| G7C A12U U28A G36U U38A | 0.02 |
| G7C C37A C46A | 0.13 |
| G7C C8G C18U C31A G44C | 0.01 |
| G7C A11U A24U | 0.02 |
| G7U A11G A16C C18A G29A G30U | 0.02 |
| G7C C10A A25U A39C A41C | 0.01 |
| G7U C13G G40C | 0.02 |
| G7C A11U U28C G33U | 0.03 |
| G7U C13A G30A A39G G44A | 0.06 |
| G7U A14C A16G G22C A26G U28G C37U | 0 |
| G7U C10A A12G U38G G40U | 0.01 |
| G7C G21U A26C G33U | 0.04 |
| G7U A26G U32A | 0.17 |
| G7U C13G A24C G40A | 0.07 |
| G7C A39C A41U C45A | 0.02 |
| G7C C15A G17C G36C G40U | 0.07 |
| G7C A14C C46U | 0.01 |
| G7C C37U G40A | 0.03 |
| G7C C10G C13G C18G U20C A26U G30C G36C | 0.01 |
| G7U G22C A26U | 0.06 |
| G7U G27C G44A | 0.14 |

| Variant | self-cleavage |
| --- | --- |
| G7U C18G C23G G30C | 0.03 |
| G7C C10A C13U G33U | 0 |
| G7U U20A G27A | 0.01 |
| G7C A16U G29A C31U C46U | 0.01 |
| G7U C18G G21A C23A | 0.04 |
| G7U C8A G19C G40A | 0.06 |
| G7U C8U U9A C46A | 0.15 |
| G7U G36C C42A | 0.12 |
| G7U C8A A16G C23G | 0.13 |
| G7U C15G C42U | 0.04 |
| G7C C15U G30A C42G C46U | 0.01 |
| G7U C10A C18U G30C | 0.01 |
| G7U C13A C31A G44A | 0.12 |
| G7U C23G A25C | 0.06 |
| G7C U9A G21A G33A | 0.28 |
| G7U C23U U34C G36C | 0.03 |
| G7U A25C G27U | 0.02 |
| G7C U38A C45U | 0.05 |
| G7U C8U U34G | 0.29 |
| G7C A12C C23U A25U | 0.01 |
| G7U U9C G17A C18U G33U | 0.04 |
